Experimental data: PubChem BioAssay AID2060501 (Molecular Pharmacology Branch, DTP, NCI, 2025)
Some entries of the source have several records that differ or are many. They are shown here; other results are not. An entry can have further records. The records of an entry are repeats across runs, samples, wells, individuals or studies. Signs of the kind (2×) stand for listed records that agree.

System: 282377-053-R-J1-PDC complex spheroids, viability
Assay: Anticancer human tumor 282377-053-R-J1-PDC patient-derived colon adenocarcinoma cell line growth inhibition [GQUAD]
Conditions: for viability, T/C: stronger effect = lower value; for IC50: compound alone
From the text: DNA G-quadruplex Stabilizer Agents in Combinations in Complex Spheroids
A high-throughput screen of multi-cell type tumor spheroids was designed to identify active combinations of DNA G-quadruplex stabilizer agents and targeted small molecules. Complex spheroids include a stromal component modeled by human endothelial cells (HUVEC) and fibroblasts modeled by human mesenchymal stem cells (MSCs). The concentration ranges selected for each drug and investigational agent were based upon clinically achievable concentrations if the clinical Cmax of the agent was known.
Compounds. The drugs and investigational agents: pidnarulex (CX-5461; NSC782164), APTO-253 (NSC789042), BRACO-19 (NSC847499), peposertib (NSC802822), ceralasertib (NSC780249), elimusertib (NSC800525), camonsertib (NSC841442), AZD-1390 (NSC803789), olaparib (NSC753686), talazoparib (NSC767125), ART-558 (NSC835418), sotorasib (NSC818433), MRTX-1133 (NSC836407), SN-38 (NSC673596), topotecan (NSC609699), etoposide (NSC141540), doxorubicin (NSC123127), gemcitabine (NSC613327), 5-fluorouracil (NSC19893), paclitaxel (NSC125973), vemurafenib (NSC761431), panobinostat (NSC761190), R-306465 (JNJ-16241199; NSC773264), adavosertib (NSC754352), TP-3654 (NSC805149), carboplatin (NSC241240), KSQ-4279 (NSC840948), and staurosporine (NSC755774) were obtained from the National Cancer Institute (NCI) Developmental Therapeutics Program Chemical Repository (34). The FDA-approved anticancer drug set is available from the NCI Developmental Therapeutics Program. […] The stock solutions were prepared in dimethyl sulfoxide (DMSO, Sigma-Aldrich, St. Louis, MO, cat. D2650) at 800-fold the tested concentration and stored at -70 degrees C prior to their use. All drugs and investigational agents were tested over a range starting from a high concentration at or near the clinical Cmax and decreasing in half-log increments. If the clinical Cmax for an agent had not been determined, the highest concentration tested was 10 microM.
2.3 Cell Culture. All cells were maintained in an incubator at 37 degrees C and 5% CO2 with 95% humidity. The PDC lines were cultured according to standard operating procedures established by the NCI PDMR. All PDCs were thawed and cultured in Matrigel-coated flasks prepared with a working solution of 1X Ham's F-12 nutrient mix, without supplementation (Invitrogen, cat. 11765054), 100 U/mL penicillin-streptomycin (Invitrogen, cat. 15140122), and 2.5% Matrigel (Corning Inc., cat. 354248) for the first three passages. The 857933-349-R-J2-PDC line was cultured in 6C/Colon 1B media, which includes advanced DMEM/F-12 (Thermo Fisher Scientific, cat. 12634028), 10 mM HEPES (Thermo Fisher Scientific, cat. 15630080), 1X GlutaMAX supplement (Thermo Fisher Scientific, cat. 35050061), 0.1 mg/mL primocin (InvivoGen, cat. ant-pm-2), 10% defined fetal bovine serum, heat inactivated (HyClone Laboratories Inc., cat. SH30070.03HI), 50% L-WRN conditioned media (ATCC, cat. CRL-3276), 1.25 mM N-Acetyl-L-cysteine (Sigma-Aldrich, cat. A9165), 10 mM nicotinamide (Sigma-Aldrich, cat. N0636), 1X B-27 supplement (Thermo Fisher Scientific, cat. 17504044), 1X N-2 supplement (Thermo Fisher Scientific, cat. 17502048), 10 microM Y-27632 dihydrochloride (Tocris Bioscience, cat. 1254), and 50 ng/mL human EGF recombinant protein (Thermo Fisher Scientific, cat. PHG0311). The 485176-168-R4-J1-PDC line was cultured in Panc media, which includes all 6C/Colon 1B media components plus 100 ng/mL human FGF-10 (Thermo Fisher Scientific, cat. 100-26), 500 nM SB-431542 (Selleckchem, cat. S1067), and gastrin (Tocris, cat. 3006).
[…]
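Further: spheroids exposed to compounds for 7 days before readout.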
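Wherever viability, T/C is given: percent of vehicle DMSO control viability with 100% = untreated-like growth.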

For `Cc1cnc(CNC(=O)c2c(=O)c3ccc(N4CCCN(C)CC4)nc3n3c2sc2ccccc23)cn1`, the viability, T/C (compound alone 0.0316 µM) was 92.8, 91.4, 97.7, 94.8, 87.8, 93.6, 95.1, 96.4, 73, 102, 101, 85.1%, the viability, T/C (compound alone 0.1 µM) was 109, 94.2, 118, 102, 79.3, 87.5, 111, 113, 106, 98.3, 99, 108% and the viability, T/C (compound alone 0.316 µM) was 94.9, 88.8, 102, 88.3, 94.8, 88.6, 79.9, 71.6, 99.5, 92.6, 81.9, 90.1%. The IC50 (run of 04/16/2024) was 1.71 µM, 2.34 µM, > 10 µM, 6.37 µM.
`COc1ncnc(C2CC2)c1-c1ncc2cnn(Cc3ccc(-c4nc(C(F)(F)F)cn4C(C)C)cc3)c2n1` was tested, and the viability, T/C (compound alone 10 µM) was 93.8%, 7.29%, 75.9%.
With `CC(=O)O[C@H]1C(=O)[C@@]2(C)[C@H]([C@H](OC(=O)c3ccccc3)[C@]3(O)C[C@H](OC(=O)[C@H](O)[C@@H](NC(=O)c4ccccc4)c4ccccc4)C(C)=C1C3(C)C)[C@]1(OC(C)=O)CO[C@@H]1C[C@@H]2O` the IC50 was < 31.6 nM, 538 nM, 44.1 nM and the viability, T/C (compound alone 10 µM) was 22.2%, 0.16%, 26.6%.
In the case of `O=C(NO)c1cnc(N2CCN(S(=O)(=O)c3ccc4ccccc4c3)CC2)nc1`, the IC50 is reported as 412 nM, 41.4 nM, 491 nM.
In the case of `Cc1[nH]c2ccccc2c1CCNCc1ccc(/C=C/C(=O)NO)cc1`, the viability, T/C (compound alone 0.316 µM) is reported as 3.88%, 86.6%, 7.87%.
`Cc1[nH]c2ccc(F)cc2c1-c1nc2c3cccnc3c3ncccc3c2[nH]1` was tested, and the viability, T/C (compound alone 0.1 µM) was 109 (2×), 103, 101 (3×), 92.6, 89, 91, 71.3, 96.8, 93.7%, the viability, T/C (compound alone 0.316 µM) was 91.7, 110, 111 (2×), 101, 85.4, 94.2, 87.6, 122, 102, 97.6, 104% and the viability, T/C (compound alone 1 µM) was 83.4, 119, 100, 104, 105, 101, 88.4, 110, 106, 102, 107, 109%. For the same compound, the viability, T/C (compound alone 3.16 µM) was 62, 79.9, 90, 77.5, 86.1, 72, 66.8, 74.6, 106, 89.2, 75.6, 92.7% and the viability, T/C (compound alone 10 µM) was 51.5 (2×), 57, 42.4, 43.7, 67.9, 58, 50.3 (2×), 46.3, 40.7, 77.2%.
`CN(C)c1ccc(Nc2c3ccc(NC(=O)CCN4CCCC4)cc3nc3cc(NC(=O)CCN4CCCC4)ccc23)cc1` was tested, and the viability, T/C (compound alone 0.0316 µM) was 81.3, 82.5, 87.8, 85.2, 93.5, 86.8, 101, 91.7, 107, 104, 84.4, 85%, the viability, T/C (compound alone 0.316 µM) was 95.8, 85.4, 103, 115, 86.3, 106, 93.5, 102, 98.9, 99.2, 101, 99.9% and the viability, T/C (compound alone 1 µM) was 101 (2×), 98.1, 79.7, 96.5, 103, 98.9, 108, 93.5, 102, 97.3, 105%. The viability, T/C (compound alone 10 µM) was 87.9, 96, 78.9, 98.1, 93.8, 88.4, 94.4, 91.2, 97.1, 107, 83.7, 81.5%.
